Consider 72 sequences from article PMC10726135.

Some of the results follow. At the low end of the ranking, values are background and their order means little. Measured with an extract: partners may take part in the binding.

This test concerns the target T1, HNF4alpha8 (COS-7 nuclear extract) (UniProt P41235-5).
T1 sequence: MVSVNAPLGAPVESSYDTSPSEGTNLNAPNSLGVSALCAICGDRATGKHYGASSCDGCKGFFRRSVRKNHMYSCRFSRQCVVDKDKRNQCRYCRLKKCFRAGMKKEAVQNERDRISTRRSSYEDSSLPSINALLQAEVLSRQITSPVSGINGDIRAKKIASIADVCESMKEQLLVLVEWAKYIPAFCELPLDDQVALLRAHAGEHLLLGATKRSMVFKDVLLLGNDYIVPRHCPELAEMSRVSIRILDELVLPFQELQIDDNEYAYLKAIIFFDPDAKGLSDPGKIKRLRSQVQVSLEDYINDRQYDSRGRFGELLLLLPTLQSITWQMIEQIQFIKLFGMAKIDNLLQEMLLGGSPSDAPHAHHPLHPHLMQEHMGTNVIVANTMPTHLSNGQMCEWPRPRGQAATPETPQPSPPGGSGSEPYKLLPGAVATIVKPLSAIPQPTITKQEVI
Put plainly: protein-binding microarray. As to conditions: COS-7 nuclear extract on double-stranded Agilent 4x180k PBM; binding buffer, salt, pH and temperature not given; high values mean tight binding; double strand, one strand shown; sequences stand for … in …GCCTAGGGAGATTAGAGTATCGGTCGA
Turning to AGCAGAAAAGCTGTACCAATTATTGCGAGT, the binding signal (log2 normalized intensity) is -1.32. In the case of CTCCGCTGAAGTCAATGTCAGCTAGAGGCC it was -0.944; in that of TTTTCCAGCAGCGGATCCAACCTGTTCTTT, 0.593; in that of TGAACTTTGCCTTGTACACAAAGACATTGC, 2.93. For the sequence TGACGGTATGTGAATGCCTGGGCATGGCTG, the binding signal (log2 normalized intensity) is -1.3. Take CCTTTCTGCCCTTTGAAGCATGTGATCTAC: the binding signal (log2 normalized intensity) came to 2.7.

For TCTGATACACTCGCCGTGTGACTGAGGGCT, the binding signal (log2 normalized intensity) was -1.28. In the case of GAGCCCCTGTGATACAACGGTTCAAAGGAC it was 3.13; in that of CGGAGAGCAGGGCGTGGACTTCGCTCCGCC, 5.75.

On to AGCCAGAGGCAGCAAGGTCAAAGTGCGTCC, for which the binding signal (log2 normalized intensity) is 6.33.

Consider AACTCACTACAAACGCCTCTAAGCTCTTTC, for which the binding signal (log2 normalized intensity) was -1.33. For GGTCTGTTTGTGAAACAGTGGGCAATATGA the value was 1.18; for TCAGTTTGGCTCTTATGTCCCTCCTGACCT, 3.83; for TTCCCAGGAATTGGCCTGTGCCTCAATTGC, 0.807. In the case of TTCCTTTCCCTTTATTTAGCCTCACTAAGA it was -0.859. For CCACCCACACTGCAGCAAAACTTTAGGACT the value was -1.21. Consider AAATCCCCAAACTTAAAAGAAGCTACTAGC, for which the binding signal (log2 normalized intensity) is -1.36. In the case of TTTCTAAGAAAGTTCAGCCCTTAGGACCAG, the binding signal (log2 normalized intensity) was -0.943.

For ATTGGGATGGCAGCTTCATTCCAGCCCCAT, the binding signal (log2 normalized intensity) was found to be 1.28.

As for GAGGAAACAAACAGATATGCATTTGTCTCT, the binding signal (log2 normalized intensity) is -1.38. For TGTGTGTAGGCATAGGAGAAACACATAAAC the value was -1.14; for GTCAGTCTTTGTTCTAGTAAGGCCTTCAAA, 0.595; for TTCACCAAGAGGGAAAAGATGGTCTCTCAC, -0.945. As for TGACCTGCAAGGTTCTCTCTTCTTCCCCTC, the binding signal (log2 normalized intensity) is 2.5. For GCGGGGCTCAAAGGCGGCCCGGGTGGGGGT the value was -1.24.

Regarding GAAATCATTCCAGAAAGACAGCTGCATTTG, the binding signal (log2 normalized intensity) is -1.29. In the case of CAGCAATAAATACCAAAGCCATGGCTCCAA it was -1.44; in that of CCCCCCACCCCACACACACACAGCATTCCA, 5.24; in that of ACCCCTGAATAGGTCTTGGAATGTGACGGC, 1.5.

Consider GCAAGGAATTCAACCCTTGTCACTTTCCCT, for which the binding signal (log2 normalized intensity) is 1.82. In the case of ATCAAAACCTTCATCTCTCTTTGTTGACAT it was 1.44. In the case of CTTTGAAGCATGTGATCTACTCCCTGTTCT it was 0.566; in that of TTCCTGGTATCAGAGTGGAGCCAGATGCAC, -0.591. For GCAGAGGCTGGGGCCCTCTTCCAGCTGAGA the value was -1.2.

For GGCCCCCACTAGAGAGACCGTCCCTGGGTA, the binding signal (log2 normalized intensity) stood at 3.16. In the case of TATCCCTCCGCCTCCCTCCCCCTTTCTCCG it was 4.75; in that of TGGGAAAAGGCGCATGCATAACCAAACAGA, -0.788; in that of TCATATATGCATTTGTCTCAGGTGGGCAGA, 1.23. For TGGGAGAACCTGTGCTTCTGGTTCTGGACT the value was 2.48. Consider AATACTTATGATATGAAGCATTGCTTGAGT, for which the binding signal (log2 normalized intensity) was found to be 0.754. For GCCCTTCCCCCCTCTGCAGCCTTACCCAGT the value was 4.44; for AGAAGTAGGATAAGGGTAGGGCCAATCTCT, -1.38. Consider GCTCTGGAATCTCTGGATTTCAGGTACACA, for which the binding signal (log2 normalized intensity) is 0.947.

With ATTATGGTAGGCAGCCTCTGAGATGGACTC, the binding signal (log2 normalized intensity) was found to be 3.96.

Consider TAGATAACTCCAAGATTAGTGGGAAAGCTA, for which the binding signal (log2 normalized intensity) is -1.23. For CACCCTACCCCCATACTTTATTTAGCTTTA, the binding signal (log2 normalized intensity) was 1.53. For ACATTCCACTCAGTCTCTTGAAATCCCAAG the value was -1.21; for TGTGCTGGATGTTTCCTTTGAACTCTGCAT, 2.66; for CCTCCTCCTCCTTTTTTTTTTCAAGTGTTA, 1.34. Regarding CTCACATGAGCTAGAGCTCGTGTCATCTCT, the binding signal (log2 normalized intensity) is -1.28.

On to CAGATTTAATGAAATACAGTAGACTTTTTT, for which the binding signal (log2 normalized intensity) was -0.798. For the sequence GGACTTCGCTCCGCCGCTAGGTGGCGGGCT, the binding signal (log2 normalized intensity) amounted to 2.34. In the case of GTTTTCGCAGCAAGTTACACAAGTAGAATG it was 0.0517; in that of GCAGGACAGTTTTGTGTGTTTAATGTTTTC, 1.6. For GCCCATGCTGGACCCTGGGCTTAGTTGCTC the value was 3.2. For CTTTTCACAGGAGAGGAGAAAGAGCAATCT the value was -1.19; for TTAACGCTAAAGAGGTATCATGAGGTATAT, 0.849; for AGCTGGGAGCTGCCGCAACATTGTCCAGCA, -1.45. With TGCTGCACTGATAAGAAAGCAAAGTCCAAC, the binding signal (log2 normalized intensity) stood at 5.11. In the case of CCCCTGTGCAAACTTTTTCCTTTTCTTATC it was 0.589; in that of GTCTTACCGGGATTTTGTTGGGGAACTTTG, 1.83; in that of TTTTTTCCCCTCCCTCAGCTCTGCCCAGAC, 4.51. In the case of CTGTAGAAAGACTAAAGTTCAGGAGGGAGG it was 0.979; in that of GTCTTCTGTTTGCAAATGGATGAATTTTAT, 1.14.

With TTTGTCCCAAGGAGAATTTCACAAAGGGCA, the binding signal (log2 normalized intensity) was determined as 1.85. For GAATCCCAGTTCTGATACACTCGCCGTGTG the value was -0.814; for AAAGGGAATAACCTTTGAGCTGAGTTCCAC, 4.71. In the case of GTCAGGCTGCTCAGCTGCCTAGAGGCCTGG it was -1.35; in that of AGTTTTTCTTGCTCTTTACCCCTGCAAGGA, 2.66. In the case of TGGACAACTGTACTTTGGACTGGGGACCTG it was 6.02.

As to AGTTGCTCAGTGTTCCACAGCAAGTAAATT, the binding signal (log2 normalized intensity) was -1.2.

Regarding TGGGCTGGACTAAGAGTAGCGGTTTCTGCT, the binding signal (log2 normalized intensity) was -1.35.
